For six molecules, binding signal results are on record in paper PMC12136788.

The list shows a part of the results.

To fix the notation:
T1: UNK ZnF1-3 (human, UniProt Q9C0B0 31-174)
T1 sequence: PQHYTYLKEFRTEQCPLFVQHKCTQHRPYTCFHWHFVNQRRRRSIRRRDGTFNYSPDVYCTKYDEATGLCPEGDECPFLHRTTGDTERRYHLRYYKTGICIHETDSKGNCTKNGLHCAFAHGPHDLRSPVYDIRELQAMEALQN

B1: chr7:141438946:141438947:+_ENSG00000106028_ENST00000265304|hu_mus|hu_hu_hu_mus_True|28_78 (ssRNA)
RNA: GGGAGUUCUACAGUCCGACGAUCGACGAAAUACCUGUAACACAGGUCUUCGAAACAUUCUAUUUUCUUUUCUUACAACCUAAUCUUUAGGCUUUUCCUAAAGGAAAAACCCGAGCAAGAAAAAUGAUAAAUCAAGAAACUACACAACAGAGGAUUGAGCAUCA
B2: chr12:8244378:8244379:+_ENSG00000089818_ENST00000339754|hu_mus|FALSE|FALSE (ssRNA)
RNA: GGGAGUUCUACAGUCCGACGAUCUUGCAGGGAAACAUUAAAGUCGAAGGCAUCUCCCCGAUCCGUGAAGCCGAUGCCAAUAAACGCGCUGCGCCCGGUUCCAUCCUGGAUCCUGAUCACAAAGUAGCGGCUGGAGUCUGUCACCAACAGAGGAUUGAGCAUCA
B3: chr3:47957716:47957717:-_ENSG00000047849_ENST00000395734|hu_mus|FALSE|FALSE (ssRNA)
RNA: GGGAGUUCUACAGUCCGACGAUCGUCCUUGACUGAGGUUACCUCUUCUUCUGAAAGUGGAGUCACAUUGUUAAACUCAGCCACCUUUGUUUCUGGAAGUAUAACCACGUCCUUGCCCAGAGUCACUUCUGAUUCUGGGAGUGGCAACAGAGGAUUGAGCAUCA
B4: chr1:109605286:109605287:-_ENSG00000197780_ENST00000461096|hu_mus|hu_hu_hu_mus_True|28_68 (ssRNA)
RNA: GGGAGUUCUACAGUCCGACGAUCAAGUUUCAGAGUAACAUUCAGUAACCUCUUUAAAUGCAAUUAUCCUUACUUUAAGCUAAGCAGAAUAAUAAUUUAAUACCGUAAGUAAAUACAACACAAAGCCUGAACCGCGAAAAUGGUCAACAGAGGAUUGAGCAUCA
B5: chr19:58870598:58870599:-_ENSMUSG00000025092_ENSMUST00000066285|mus_hu|FALSE|FALSE (ssRNA)
RNA: GGGAGUUCUACAGUCCGACGAUCAUCUUUGACUAAUAAUGCAUUCUGACUCCUGUUUACAUUGGUGCAUGCGAUUCUUUGCUACCCUGGCAAUUAACCAGACCUGGACUCUAAAAGCUAAACUUGGUCUAAAUAACAUUCUAACAACAGAGGAUUGAGCAUCA
B6: chr5:128440902:128440903:+_ENSG00000066583_ENST00000173527|hu_mus|hu_hu_hu_mus_True|98_98 (ssRNA)
RNA: GGGAGUUCUACAGUCCGACGAUCUUGAACGGUGCUGCCAAGACCUUUGGGGUAUUGUUCCGUUAUGAUAACUGGAAUCCCUAAGAUCCGAGCUCCUUGCAACAGUCUCUGUCCCACACUAAUGAUGUCCCCAAAGUAUUUGAUCAACAGAGGAUUGAGCAUCA

The target of the test is T1, UNK ZnF1-3. Briefly: nsRBNS (natural sequence RNA bind-n-seq); RBNS binding buffer (assumed for nsRBNS): 25 mM Tris pH 7.5, 150 mM KCl, 3 mM MgCl2, 0.01% Triton X-100, 500 ug/ml BSA, 20 U/ml SUPERase-In, 4 C; UNK is unkempt and MSI1 is Musashi-1; names of the RNAs are library labels; protein concentration not given here; high values mean tight binding.
For B1, the binding signal amounted to 0.181 enrichment R.
Then B2, with 1.2 enrichment R; and B3, with 0.482 enrichment R; and B4, with 0.932 enrichment R.
For B5, the binding signal was determined as 0.971 enrichment R.
B6: the binding signal came to 0.598 enrichment R.
